# Test results published in PubChem BioAssay AID485364 (National Center for Advancing Translational Sciences (NCATS), 2010).
# Hit rate of the full screen: of about 360,000 compounds, about 11,000 (3.1%) were called active. This list was built around the results that the source calls inconclusive (neither active nor inactive); the mix of calls is not that of the screen. Calls come from the whole dose curve; as a rule, active = well fitted inhibition curve with a large enough effect; inconclusive = small, poorly fitted or top-dose-only effect; inactive = no such curve, though single readings can be large or run the other way. Potencies of inconclusive entries are left out as doubtful fits.
# Molecular target: Schistosoma mansoni thioredoxin glutathione reductase (TGR) (UniProt Q962Y6)
# Assay: qHTS Assay for the Inhibitors of Schistosoma Mansoni Peroxiredoxins; note: nearly all actives have a fitted effect of over 60% in size
# Settings: purified TGR, DTNB reduction, TNB absorbance 405 nm; series mostly up to 114 µM
# Summary of the method: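 TGR 20 nM + NADPH 100 uM (dispensed conc.), cpd preinc 15 min RT; start with NADPH (500 uM addition) then DTNB (15 mM addition). Kinetic TNB absorbance, 405 nm filter. Four-parameter Hill fit across titration.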
# Potency is the fitted concentration of half-maximal effect; tags give direction and shape of the fitted curve.
row,Compound,Potency
1,CCOc1ccc(CC(=NCCO)C2=C(O)CC(C)(C)CC2=O)cc1OCC,"inconclusive [inhibitor, partial curve]"
2,N#Cc1c(N)n(CCCN2CCOCC2)c2nc3ccccc3nc12,"inconclusive [inhibitor, full curve, poor fit]"
3,COCCCNC(=O)CNC(=S)N(Cc1ccc(F)cc1)C1CCCCC1,"inconclusive [inhibitor, single point]"
4,Nc1nc(-c2ccc3c(c2)NC(=O)CO3)cs1,"inconclusive [inhibitor, single point]"
5,CN(C)S(=O)(=O)c1ccc(Cl)c(NC(=O)COC(=O)/C=C/c2cnc3ccccc3n2)c1,inactive
6,Nc1n[nH]c(C2CC2)c1N=Nc1ccc(Cl)c(Cl)c1,inactive
7,COc1ccc(-c2cc(C#N)nc(NN)n2)cc1,inactive
8,Cc1nc(Cl)cc(CS(=O)(=O)c2ccc(Cl)cc2)n1,"inconclusive [inhibitor, single point]"
9,COC(=O)C1=C(C)N(c2ccc(F)c(Cl)c2)C(=O)C1,active: 25.1 µM
10,CN(CC(=O)Nc1ccccc1C(F)(F)F)C(=O)CC1OC(=O)c2ccccc21 (stereo not given),"inconclusive [inhibitor, full curve]"
11,CN(C)c1nc(C=C(C#N)C#N)c(Cl)n1-c1ccc(F)cc1,active: 1.78 µM
12,CCN1CCOC(CC(=O)Nc2cccc([N+](=O)[O-])c2)C1=O (stereo not given),active: 11.2 µM
13,OC(c1ccccc1)(c1ccccc1)C1CCNCC1,"inconclusive [inhibitor, partial curve]"
14,COc1ccc(-c2cccc(NS(=O)(=O)c3ccc(C)s3)c2)nn1,inactive
15,Fc1ccccc1NC(=S)NCCc1ccc(Cl)cc1,"inconclusive [inhibitor, partial curve, poor fit]"
16,COc1ccc(N2C(=O)/C(=C/c3cc(C)n(-c4ccc(C)cn4)c3C)C(=O)NC2=S)c(OC)c1,"inconclusive [inhibitor, partial curve]"
17,CC(=O)Nc1ccc2sc(NC(=O)CN3CCOCC3)nc2c1,inactive
18,CC(=O)c1sc(C(=O)O)c(-c2ccco2)c1-c1ccco1,active: 20 µM
19,Nc1c(Cl)ncnc1N/N=C/c1ccc(O)cc1,"inconclusive [inhibitor, partial curve]"
20,O=C(c1ccc(CS(=O)(=O)c2ccc(Br)cc2)o1)N1CCOCC1,active: 44.7 µM
21,CN(C)c1ccc(NC(=O)Nc2cccc3ccccc23)cc1,"inconclusive [inhibitor, partial curve]"
22,O=C(NC1CC1)c1ccc(CS(=O)(=O)c2c(Cl)cccc2Cl)o1,"inconclusive [inhibitor, partial curve]"
23,O=C(CN1C(=O)C2C3C=CC(C3)C2C1=O)Nc1ccc(S(=O)(=O)N2CCCCC2)cc1 (stereo not given),inactive
24,O=C(CNC(=O)c1ccco1)N/N=C/c1c[nH]c2ccccc12,inactive
25,O=[N+]([O-])c1cc(Br)cc(C=Nc2ccc3c(c2)OCO3)c1O,active: 17.8 µM

row,Compound,Potency
1,COc1ccnc(CSC(N)=Nc2ccccc2C(F)(F)F)c1,inactive
2,CC1Cc2cc(S(=O)(=O)N3CCC(C(=O)N(C)Cc4ccco4)CC3)ccc2N1C(=O)C1CCC1 (stereo not given),"inconclusive [inhibitor, partial curve]"
3,CCc1ccccc1NC(=O)C(C)n1nc([N+](=O)[O-])c(Br)c1C (stereo not given),"inconclusive [inhibitor, partial curve]"
4,CS(=O)(=O)N(CC(=O)Nc1ccc(Br)cc1)c1ccccc1Br,inactive
5,COc1ccc(-c2noc(-c3ccccc3-c3ccccc3)n2)cc1OC,inactive
6,CCCn1c(C2CCCN2c2nc(-c3cccc(Br)c3)cs2)nc2cc(Cl)c(Cl)cc21 (stereo not given),"inconclusive [inhibitor, partial curve]"
7,Cc1ccc2nc(-c3ccccn3)oc2c1,inactive
8,Cc1ccc(C)n1-c1ccccc1N1CCCCC1,"inconclusive [inhibitor, partial curve]"
9,CC1CCN(C(=O)c2ccc(COc3ccccc3Cl)o2)CC1,"inconclusive [inhibitor, partial curve]"
10,CCS(=O)(=O)c1nc(S(=O)(=O)c2ccc(Cl)cc2)c(N2CCCC2)s1,"inconclusive [inhibitor, partial curve]"
11,Nc1nc(SCC(=O)Nc2ncc(Cl)cc2Cl)n[nH]1,inactive
12,COc1ccc(/C(N)=N/OC(=O)C2CCCCC2)cc1,active: 89.1 µM
13,Cc1ccc2c(c1)C=CC(C#N)N2C(=O)c1ccccc1 (stereo not given),inactive
14,COc1ccc(-c2cn3ccccc3n2)cc1[N+](=O)[O-],inactive
15,Cc1cccc(N2C(=O)CC(N3CCN(c4cccc(C(F)(F)F)c4)CC3)C2=O)c1 (stereo not given),"inconclusive [inhibitor, single point]"
16,O=C(O)CCC(=O)Nc1cccc(C(=O)Nc2cccc(Cl)c2)c1,"inconclusive [inhibitor, single point]"
17,Cc1ccc(CCNC(=O)Cn2ncc3c([nH]c4ccc(C)cc43)c2=O)cc1,inactive
18,CCCN(CCC)C(=O)CN1C(=O)CSc2ccc(S(=O)(=O)N3CCC(C)CC3)cc21,inactive
19,O=C1ON=C(c2ccccc2)/C1=C/c1ccccc1,"inconclusive [inhibitor, partial curve, poor fit]"
20,CCc1nc2ccc(C(=O)N(C)CC(=O)Nc3ccc(Cl)c(C(F)(F)F)c3)cc2nc1CC,"inconclusive [inhibitor, partial curve]"
21,CC1=C(C(=O)OCCBr)C(c2cccc3ccccc23)NC(=O)N1 (stereo not given),active: 39.8 µM
22,CC(CNC(=O)c1ccc(CSc2nc3ccncc3n2Cc2ccc(F)cc2)cc1)c1ccccc1 (stereo not given),"inconclusive [inhibitor, single point]"
23,Cc1cccc(C)c1NC(=O)/C(C#N)=C/c1ccc(-c2ccc(C(=O)O)cc2)o1,inactive
24,COc1ccccc1NC(=S)NC(=O)Cc1ccc(Cl)cc1,"inconclusive [inhibitor, full curve, poor fit]"
25,O=C1C2C3C=CC(C2C(=O)N1c1ccccc1O)C1C2C(=O)N(c4ccccc4O)C(=O)C2C31 (stereo not given),inactive

row,Compound,Potency
1,N#Cc1nc(COc2ccccc2Cl)oc1NCc1ccc(F)cc1,inactive
2,Cc1csc(SCc2nc3scc(-c4ccccc4)c3c(=O)[nH]2)n1,"inconclusive [inhibitor, partial curve]"
3,O=C(/C=C/c1ccc(S(=O)(=O)N2CCOCC2)cc1)N1CCN(c2ccc(F)cc2)CC1,"inconclusive [inhibitor, partial curve]"
4,CCOc1ccc(/C=C/c2nc(C#N)c(NC(C)CC)o2)cc1 (stereo not given),inactive
5,S=C(NCC1CCCCC1)Nc1cccnc1,"inconclusive [inhibitor, partial curve]"
6,COc1cc(C(=O)NCCC(=O)N2CCCCC2)cc(OC)c1OC,"inconclusive [inhibitor, single point]"
7,COc1cc2cc(CCCOC(=O)c3ccc4c(c3)OCO4)oc(=O)c2cc1OC,active: 50.1 µM
8,Cc1ccc2[nH]cc(C(=O)CCl)c2c1,"inconclusive [inhibitor, full curve]"
9,CN(C)CCC(=O)c1ccc2c(c1)OCO2,active: 0.631 µM
10,COC(=O)c1ccc(NC(=O)CCc2nnc3ccc(NCc4ccco4)nn23)cc1,"inconclusive [inhibitor, partial curve]"
11,CCN(CCO)c1ccc(-n2c(N)c(C(=O)OC)c3nc4ccccc4nc32)cc1,"inconclusive [inhibitor, single point]"
12,Cn1c(C=O)c(-c2ccc3cc[nH]c3c2)c2ccccc21,"inconclusive [inhibitor, single point]"
13,COc1ccc(CNC(=S)Nc2cccc(F)c2)cc1,"inconclusive [inhibitor, partial curve]"
14,CC1(C)Cc2cccc(C(=O)NCc3ccco3)c2O1,"inconclusive [inhibitor, partial curve]"
15,COc1ccc(NC(=O)/C=C/C(=O)O)c([N+](=O)[O-])c1,"inconclusive [inhibitor, partial curve]"
16,COC(=O)c1ccc(CSc2nc3ccccc3c(=O)n2-c2ccccc2)o1,inactive
17,O=C1/C(=C\c2ccc(Br)o2)SC(=Nc2ccccc2)N1c1ccccc1,"inconclusive [inhibitor, full curve]"
18,CCCCN(Cc1ccco1)S(=O)(=O)c1csc(C(N)=O)c1,"inconclusive [inhibitor, partial curve]"
19,O=C(N/N=C1/CCc2ccccc21)C1CC1,inactive
20,O=C1c2ccccc2C(=O)N1CCCc1cn(C[C@H]2CC[C@@H]([C@@H]3CC[C@H](Cn4cc(CCCN5C(=O)c6ccccc6C5=O)nn4)O3)O2)nn1,inactive
21,Cc1oc(-c2ccccc2)[n+]([O-])c1C,"inconclusive [inhibitor, partial curve]"
22,CSCCC(NS(=O)(=O)c1ccc(C)cc1)C(=O)N1CCN(C(c2ccccc2)c2ccccc2)CC1 (stereo not given),inactive
23,CC(O)c1nc(C(C)O)n(CC(=O)c2ccccc2)n1 (stereo not given),active: 44.7 µM
24,CN(Cc1ccccc1)C(=O)CCn1c(=O)oc2ccccc21,"inconclusive [inhibitor, partial curve]"
25,CCSc1ccc([C@@H]2[C@H]3C(=O)N(CC)C(=O)[C@H]3[C@]3(C(=O)OC)CCCCN23)cc1,"inconclusive [inhibitor, partial curve]"
